The results in this text go back to paper PMC5700166.

Only a part is listed here, and it is no random draw. The list includes weakly bound sequences.

The experiment addresses T1, GST-Dm-Relish (UniProt Q94527).
T1 sequence: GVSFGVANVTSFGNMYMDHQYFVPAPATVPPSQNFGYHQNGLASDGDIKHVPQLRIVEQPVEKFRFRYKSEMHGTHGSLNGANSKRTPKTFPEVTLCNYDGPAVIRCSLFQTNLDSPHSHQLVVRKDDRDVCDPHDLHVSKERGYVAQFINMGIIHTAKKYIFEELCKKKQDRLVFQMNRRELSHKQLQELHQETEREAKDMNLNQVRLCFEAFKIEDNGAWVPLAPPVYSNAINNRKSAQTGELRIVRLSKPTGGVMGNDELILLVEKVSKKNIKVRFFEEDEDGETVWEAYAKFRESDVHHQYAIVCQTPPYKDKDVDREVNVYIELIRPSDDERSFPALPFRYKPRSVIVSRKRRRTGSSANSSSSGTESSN
Description: protein-binding microarray (PBM). As to conditions: PBM: ~300 nM protein, 6 mM HEPES pH 7.8, 80 mM KCl, 0.5 mM EDTA, 0.5 mM EGTA, 6% glycerol, 35 ng/ul poly-dIdC, 1% milk, 1 h, room temperature; Ap Aiptasia and Nv Nematostella (sea anemones) / Co Capsaspora / Aq Amphimedon (sponge) / Dm Drosophila / Hu human; RHD is the Rel homology domain; high values mean tight binding; most listed sequences are background and not binding sites; double strand, one strand shown.
“CCGATTAACATCACCCACTTCCCTGATGTTAATCGGGTCTTGATTCGCTTGACGCTGCTG” came in with a binding signal of 0.872 z-score. Turning to “CCGATTAACATCAGAGTATTCCCTGATGTTAATCGGGTCTTGATTCGCTTGACGCTGCTG”, the binding signal amounted to 2.22 z-score.

For the sequence “CCGATTAACATCAGTTGTCCCGCTGATGTTAATCGGGTCTTGATTCGCTTGACGCTGCTG”, the binding signal came out at 0.222 z-score. The figure for “CCGATTAACATCATGGGGACGACTGATGTTAATCGGGTCTTGATTCGCTTGACGCTGCTG” is 0.574 z-score; for “CCGATTAACATCAAGGGGTTTCCTGATGTTAATCGGGTCTTGATTCGCTTGACGCTGCTG” it is 7.98 z-score.

Regarding “CCGATTAACATCAAAAAATCACCTGATGTTAATCGGGTCTTGATTCGCTTGACGCTGCTG”, the binding signal is 8.12 z-score.

Sequence “CCGATTAACATCAGATATTACCCTGATGTTAATCGGGTCTTGATTCGCTTGACGCTGCTG” registered a binding signal of 0.961 z-score. The figure for “CCGATTAACATCAGGTAATTTTATGATGTTAATCGGGTCTTGATTCGCTTGACGCTGCTG” is 3.58 z-score. To “CCGATTAACATCATGCCCGGGAATGATGTTAATCGGGTCTTGATTCGCTTGACGCTGCTG” belongs 0.38 z-score.

Regarding “CCGATTAACATCAAGTTTTCCCCTGATGTTAATCGGGTCTTGATTCGCTTGACGCTGCTG”, the binding signal worked out at 6.09 z-score. Turning to “CCGATTAACATCAGAAAAATCCCTGATGTTAATCGGGTCTTGATTCGCTTGACGCTGCTG”, the binding signal worked out at 9.03 z-score. In the case of “CCGATTAACATCAGTCCCTAAGCTGATGTTAATCGGGTCTTGATTCGCTTGACGCTGCTG”, the binding signal amounted to 0.154 z-score.

Regarding “CCGATTAACATCAGGGAAAGGAATGATGTTAATCGGGTCTTGATTCGCTTGACGCTGCTG”, the binding signal stood at 0.439 z-score. To “CCGATTAACATCAAAGATTTCCCTGATGTTAATCGGGTCTTGATTCGCTTGACGCTGCTG” belongs 2.9 z-score; to “CCGATTAACATCACGGGGAAATCTGATGTTAATCGGGTCTTGATTCGCTTGACGCTGCTG”, 6.19 z-score; to “CCGATTAACATCAATCCTCCCCCTGATGTTAATCGGGTCTTGATTCGCTTGACGCTGCTG”, 2.9 z-score. Consider “CCGATTAACATCATCCCTCCCCATGATGTTAATCGGGTCTTGATTCGCTTGACGCTGCTG”, for which the binding signal was 0.966 z-score.

In turn, “CCGATTAACATCAGGGGGGGATATGATGTTAATCGGGTCTTGATTCGCTTGACGCTGCTG” showed a binding signal of 4.91 z-score.

On to “CCGATTAACATCAGCAAATCCCCTGATGTTAATCGGGTCTTGATTCGCTTGACGCTGCTG”, for which the binding signal was determined as 5.54 z-score. To “CCGATTAACATCAAGGGAAATTCTGATGTTAATCGGGTCTTGATTCGCTTGACGCTGCTG” belongs 3.68 z-score. The figure for “CCGATTAACATCACGGGATTTCGTGATGTTAATCGGGTCTTGATTCGCTTGACGCTGCTG” is 3.68 z-score; for “CCGATTAACATCAAAATCTCCCCTGATGTTAATCGGGTCTTGATTCGCTTGACGCTGCTG” it is 4.44 z-score; for “CCGATTAACATCAAGGGACTTTCTGATGTTAATCGGGTCTTGATTCGCTTGACGCTGCTG” it is 7.3 z-score. To “CCGATTAACATCAAATCTCCCCCTGATGTTAATCGGGTCTTGATTCGCTTGACGCTGCTG” belongs 4.14 z-score; to “CCGATTAACATCAGGAACGTCCCTGATGTTAATCGGGTCTTGATTCGCTTGACGCTGCTG”, 0.919 z-score. “CCGATTAACATCAGAAATCCCGCTGATGTTAATCGGGTCTTGATTCGCTTGACGCTGCTG” gave a binding signal of 4.94 z-score. The figure for “CCGATTAACATCATGGTGGGAAATGATGTTAATCGGGTCTTGATTCGCTTGACGCTGCTG” is 0.874 z-score; for “CCGATTAACATCAAGGGCTTCCCTGATGTTAATCGGGTCTTGATTCGCTTGACGCTGCTG” it is 7.18 z-score.

“CCGATTAACATCAACAAAGTCCCTGATGTTAATCGGGTCTTGATTCGCTTGACGCTGCTG” yielded a binding signal of 5.26 z-score. To “CCGATTAACATCAAAAAAATACCTGATGTTAATCGGGTCTTGATTCGCTTGACGCTGCTG” belongs 5.83 z-score; to “CCGATTAACATCATAGTCCCATGTGATGTTAATCGGGTCTTGATTCGCTTGACGCTGCTG”, 0.684 z-score. The figure for “CCGATTAACATCAGGGGATTGTATGATGTTAATCGGGTCTTGATTCGCTTGACGCTGCTG” is 4.19 z-score; for “CCGATTAACATCAGAAAAACACCTGATGTTAATCGGGTCTTGATTCGCTTGACGCTGCTG” it is 3.66 z-score; for “CCGATTAACATCAAGGGGGGGATTGATGTTAATCGGGTCTTGATTCGCTTGACGCTGCTG” it is 5.64 z-score. In turn, “CCGATTAACATCAGGGGGCTTTATGATGTTAATCGGGTCTTGATTCGCTTGACGCTGCTG” gave a binding signal of 6.23 z-score.

For the sequence “CCGATTAACATCAACGTGGGAAATGATGTTAATCGGGTCTTGATTCGCTTGACGCTGCTG”, the binding signal was determined as 0.458 z-score.

“CCGATTAACATCACGGTATTCCCTGATGTTAATCGGGTCTTGATTCGCTTGACGCTGCTG” came in with a binding signal of 6.53 z-score. To “CCGATTAACATCAAGGGTTTTCCTGATGTTAATCGGGTCTTGATTCGCTTGACGCTGCTG” belongs 4.7 z-score; to “CCGATTAACATCAATATTTTCCCTGATGTTAATCGGGTCTTGATTCGCTTGACGCTGCTG”, 2.69 z-score.
